According to a collection of fitness landscapes (doi:10.1126/science.1257360):
Some of the results follow.

B1: PhoQ; a variant is named by its letters at X, in order, P23837 (parent)
chain: MKKLLRLFFPLSLRVRFLLATAAVVLVLSLAYGMVALIGYSVSFDKTTFRLLRGESNLFYTLAKWENNKLHVELPENIDKQSPTMTLIYDENGQLLWAQRDVPWLMKMIQPDWLKSNGFHEIEADVNDTSLLLSGDHSIQQQLQEVREDDDDAEMTHSVAVNVYPATSRMPKLTIVVVDTIPVELKSSYMVWSWFIYVLSANLLLVIPLLWVAAWWSLRPIEALAKEVRELEEHNRELLNPATTRELTSLVRNLNRLLKSERERYDKYRTTLTDLTHSLKTPLXXLQXXLRSLRSEKMSVSDAEPVMLEQISRISQQIGYYLHRASMRGGTLLSRELHPVAPLLDNLTSALNKVYQRKGVNISLDISPEISFVGEQNDFVEVMGNVLDNACKYCLEFVEISARQTDEHLYIVVEDDGPGIPLSKREVIFDRGQRVDTLRPGQGVGLAVAREITEQYEGKIVAGESMLGGARMEVIFGRQHSAPKDE

Variants of: B1
Assay: enrichment ratio after two sorts for PhoP signalling (ratio (wild type AVST 3.29)); higher = more functional
Settings: with PhoP (E. coli)

Row | Variant | enrichment ratio
1 | DYTW | ≤ 0.25
2 | WQIS | ≤ 0.25
3 | SDVL | 1.44
4 | LCYW | ≤ 0.25
5 | VGLT | 4.92
6 | MQKT | ≤ 0.25
7 | LNRN | ≤ 0.25
8 | YAKL | ≤ 0.25
9 | ELQN | ≤ 0.25
10 | VQEA | ≤ 0.25
11 | PGFP | ≤ 0.25
12 | TVDK | ≤ 0.25
13 | QLTL | ≤ 0.25
14 | RMWT | ≤ 0.25
15 | PYDW | ≤ 0.25
16 | NFIR | ≤ 0.25
17 | GNDV | ≤ 0.25
18 | VTIT | ≤ 0.25
19 | MNAP | ≤ 0.25
20 | FFWS | ≤ 0.25
21 | FYAK | ≤ 0.25
22 | GLFP | ≤ 0.25
23 | LFTC | ≤ 0.25
24 | IIAD | ≤ 0.25

Row | Variant | enrichment ratio
25 | KEPV | ≤ 0.25
26 | KKSQ | ≤ 0.25
27 | KFQK | ≤ 0.25
28 | VGRR | ≤ 0.25
29 | ISTD | ≤ 0.25
30 | AIYF | ≤ 0.25
31 | SRIT | ≤ 0.25
32 | DSMF | ≤ 0.25
33 | MAAV | 5.06
34 | IWKA | ≤ 0.25
35 | HLRD | ≤ 0.25
36 | FHKI | ≤ 0.25
37 | ALNW | ≤ 0.25
38 | PIDW | ≤ 0.25
39 | FITL | 0.497
40 | GGGM | ≤ 0.25
41 | KVET | ≤ 0.25
42 | SQAS | 10.2
43 | ENYP | ≤ 0.25
44 | PWYD | ≤ 0.25
45 | QSES | ≤ 0.25
46 | NNAY | ≤ 0.25
47 | FEHA | ≤ 0.25
48 | GYCE | ≤ 0.25

Row | Variant | enrichment ratio
49 | GQGY | ≤ 0.25
50 | AHPS | ≤ 0.25
51 | ETDD | ≤ 0.25
52 | NDLR | ≤ 0.25
53 | INAV | 1.16
54 | SDGF | 0.624
55 | EYVL | ≤ 0.25
56 | DVAA | ≤ 0.25
57 | AEES | ≤ 0.25
58 | PWAE | ≤ 0.25
59 | HDSP | ≤ 0.25
60 | KLRD | ≤ 0.25
61 | VALT | 2.18
62 | VQND | ≤ 0.25
63 | NHTH | ≤ 0.25
64 | EIYY | ≤ 0.25
65 | RPKA | ≤ 0.25
66 | WITL | 0.966
67 | IYGD | ≤ 0.25
68 | NRHG | ≤ 0.25
69 | VTIG | ≤ 0.25
70 | LMEN | ≤ 0.25
71 | KDYT | ≤ 0.25
72 | KLPV | ≤ 0.25

Row | Variant | enrichment ratio
73 | DKSF | ≤ 0.25
74 | DHAP | 1.17
75 | YTQA | ≤ 0.25
76 | SMTI | 8.27
77 | LFGF | 1.14
78 | DCWS | ≤ 0.25
79 | QSMV | 8.22
80 | TRSH | ≤ 0.25
81 | IYTY | ≤ 0.25
82 | DALE | ≤ 0.25
83 | KFIG | ≤ 0.25
84 | GAPN | ≤ 0.25
85 | DVHI | ≤ 0.25
86 | ALLV | 7.92
87 | KCLE | ≤ 0.25
88 | FCRS | ≤ 0.25
89 | YARE | ≤ 0.25
90 | RKGW | ≤ 0.25
91 | FPWD | ≤ 0.25
92 | WNWF | ≤ 0.25
93 | MYRC | ≤ 0.25
94 | KHDN | ≤ 0.25
95 | KSLD | ≤ 0.25
96 | QDGD | ≤ 0.25

Row | Variant | enrichment ratio
97 | MCDP | ≤ 0.25
98 | GANW | ≤ 0.25
99 | YKVM | 0.276
100 | HFDT | ≤ 0.25
101 | SQVS | 5.66
102 | NNEV | ≤ 0.25
103 | GTVR | ≤ 0.25
104 | LSEQ | ≤ 0.25
105 | PDLI | ≤ 0.25
106 | AYIY | ≤ 0.25
107 | QEDP | ≤ 0.25
108 | KESF | ≤ 0.25
109 | VKCY | ≤ 0.25
110 | KNPT | ≤ 0.25
111 | KEYG | ≤ 0.25
112 | GTPN | ≤ 0.25
113 | FNEK | ≤ 0.25
114 | ANMC | 22.9
115 | IIID | ≤ 0.25
116 | SFCG | 11.1
117 | DCTF | ≤ 0.25
118 | KIQC | ≤ 0.25
119 | YCLQ | 5.31
120 | QRMY | ≤ 0.25

Row | Variant | enrichment ratio
121 | LKMT | ≤ 0.25
122 | NVGD | ≤ 0.25
123 | RCHR | 0.377
124 | ETVM | ≤ 0.25
125 | HSER | ≤ 0.25
126 | QNPV | ≤ 0.25
127 | SCRE | ≤ 0.25
128 | VLTE | ≤ 0.25
129 | KADR | ≤ 0.25
130 | WNRV | ≤ 0.25
131 | LRNG | ≤ 0.25
132 | DVQL | ≤ 0.25
133 | HSAN | ≤ 0.25
134 | TETR | ≤ 0.25
135 | IAQW | ≤ 0.25
136 | HGGM | ≤ 0.25
137 | RKEG | ≤ 0.25
138 | GFGS | ≤ 0.25
139 | MREC | ≤ 0.25
140 | GMQM | ≤ 0.25
141 | PHGS | ≤ 0.25
142 | TIMK | ≤ 0.25
143 | YCPV | ≤ 0.25
144 | YMNY | ≤ 0.25

Row | Variant | enrichment ratio
145 | MRQR | ≤ 0.25
146 | TTTG | 7.1
147 | RLHQ | ≤ 0.25
148 | PLGV | ≤ 0.25
149 | AHRT | ≤ 0.25
150 | SSCI | 24.5
151 | IAPQ | ≤ 0.25
152 | ANKM | ≤ 0.25
153 | DFQH | ≤ 0.25
154 | DIYS | ≤ 0.25
155 | FHYR | ≤ 0.25
156 | GRKA | ≤ 0.25
157 | VLFR | ≤ 0.25
158 | SPKY | ≤ 0.25
159 | GDKG | ≤ 0.25
160 | SFIM | ≤ 0.25
161 | IYCW | ≤ 0.25
162 | HPQM | ≤ 0.25
163 | MTYP | ≤ 0.25
164 | NYRY | ≤ 0.25
165 | NFYD | ≤ 0.25
166 | LRRT | ≤ 0.25
167 | NPMD | ≤ 0.25
168 | YGEN | ≤ 0.25

Row | Variant | enrichment ratio
169 | PPSL | ≤ 0.25
170 | YFVD | ≤ 0.25
171 | RYIT | ≤ 0.25
172 | LWMA | ≤ 0.25
173 | FNLM | 5.75
174 | ILPV | ≤ 0.25
175 | GCMT | ≤ 0.25
176 | VATY | ≤ 0.25
177 | VCMM | 2.29
178 | WYSA | ≤ 0.25
179 | FWKV | ≤ 0.25
180 | DQGE | ≤ 0.25
181 | ILHH | ≤ 0.25
182 | ERAG | ≤ 0.25
183 | WWPI | ≤ 0.25
184 | MTTW | ≤ 0.25
185 | FDNC | ≤ 0.25
186 | FWCV | ≤ 0.25
187 | MPGK | ≤ 0.25
188 | WRRL | ≤ 0.25
189 | KDKW | ≤ 0.25
190 | ANQT | ≤ 0.25
191 | SCWN | ≤ 0.25
192 | WHNF | ≤ 0.25

Row | Variant | enrichment ratio
193 | WNHN | ≤ 0.25
194 | WSHI | ≤ 0.25
195 | KAMF | ≤ 0.25
196 | YCFD | ≤ 0.25
197 | QPWK | ≤ 0.25
198 | GRAI | ≤ 0.25
199 | WTVD | ≤ 0.25
200 | HMVL | ≤ 0.25
201 | LHAG | ≤ 0.25
202 | IRWL | ≤ 0.25
203 | ECSD | ≤ 0.25
204 | VKIC | ≤ 0.25
205 | AWHF | ≤ 0.25
206 | NQSE | ≤ 0.25
207 | IWQY | ≤ 0.25
208 | EPGQ | ≤ 0.25
209 | HFAK | ≤ 0.25
210 | AWKT | ≤ 0.25
211 | HGDH | ≤ 0.25
212 | YYID | ≤ 0.25
213 | VLCW | ≤ 0.25
214 | AMKP | ≤ 0.25
215 | HKYA | ≤ 0.25
216 | FMEY | ≤ 0.25

Row | Variant | enrichment ratio
217 | EGTL | ≤ 0.25
218 | EYCF | ≤ 0.25
219 | IAKT | ≤ 0.25
220 | MSED | ≤ 0.25
221 | FKPT | ≤ 0.25
222 | DQER | ≤ 0.25
223 | MYMH | ≤ 0.25
224 | LSKA | ≤ 0.25
225 | LFGC | ≤ 0.25
226 | QSIK | ≤ 0.25
227 | MRIW | ≤ 0.25
228 | GWWG | ≤ 0.25
229 | VVCF | ≤ 0.25
230 | HMSM | ≤ 0.25
231 | LVLN | ≤ 0.25
232 | RGVD | ≤ 0.25
233 | WTQK | ≤ 0.25
234 | KDYM | ≤ 0.25
235 | DYQG | ≤ 0.25
236 | DDKE | ≤ 0.25
237 | QDGF | ≤ 0.25
238 | QHYL | ≤ 0.25
239 | QESM | 5.67
240 | QLTD | ≤ 0.25

Row | Variant | enrichment ratio
241 | MFWV | ≤ 0.25
242 | SAQI | 2
243 | LCAC | ≤ 0.25
244 | LFQQ | ≤ 0.25
245 | AEGM | ≤ 0.25
246 | ICHA | ≤ 0.25
247 | PQSE | ≤ 0.25
248 | STFQ | 5.1
249 | LTIS | ≤ 0.25
250 | IHVL | ≤ 0.25
251 | HHYY | ≤ 0.25
252 | DWFA | ≤ 0.25
253 | MGTC | 0.695
254 | YGWP | ≤ 0.25
255 | EEQG | ≤ 0.25
256 | ESGA | ≤ 0.25
257 | VLSS | 0.29
258 | KSTD | ≤ 0.25
259 | FNWW | ≤ 0.25
260 | QALE | ≤ 0.25
261 | FFWD | ≤ 0.25
262 | DWRN | ≤ 0.25
263 | YTMP | ≤ 0.25
264 | LLWP | ≤ 0.25

Row | Variant | enrichment ratio
265 | VHVN | ≤ 0.25
266 | RSFM | ≤ 0.25
267 | YKRR | ≤ 0.25
268 | KAFF | ≤ 0.25
269 | IRIP | ≤ 0.25
270 | TLYA | ≤ 0.25
271 | IDMC | ≤ 0.25
272 | GHCE | ≤ 0.25
273 | DFYI | ≤ 0.25
274 | QEMS | 2.2
275 | AITE | ≤ 0.25
276 | FWCW | ≤ 0.25
277 | NPVC | ≤ 0.25
278 | NHAK | ≤ 0.25
279 | HYEL | ≤ 0.25
280 | DACT | ≤ 0.25
281 | KQAA | ≤ 0.25
282 | DETH | ≤ 0.25
283 | WNYQ | ≤ 0.25
284 | RCGH | ≤ 0.25
285 | MMNG | ≤ 0.25
286 | GHAE | ≤ 0.25
287 | TVYG | ≤ 0.25
288 | TAQC | ≤ 0.25

Row | Variant | enrichment ratio
289 | GWGS | ≤ 0.25
290 | KQRG | ≤ 0.25
291 | TIYS | 5.68
292 | TFDN | ≤ 0.25
293 | GEQV | ≤ 0.25
294 | WAMH | ≤ 0.25
295 | APHW | ≤ 0.25
296 | PVHD | ≤ 0.25
297 | WRPC | ≤ 0.25
298 | LHFY | ≤ 0.25
299 | KHGQ | ≤ 0.25
300 | GKVV | ≤ 0.25
301 | EPFR | ≤ 0.25
302 | GSLK | ≤ 0.25
303 | RAEA | ≤ 0.25
304 | VFKR | ≤ 0.25
305 | FQLQ | 17.7
306 | CNFG | ≤ 0.25
